The supplement of paper PMC11741623
This is one part of the list. Interaction screen of human proteins with wild-type SARS-CoV-2 proteins by split-DHFR complementation in yeast, 1 µg/mL methotrexate. Value = fitness of the pair (three or more lineages) minus that of the viral protein without a human partner, on a scale set by negative (0) and fused positive (1) controls, mean of up to three cultures; higher = more likely to interact. Active = false discovery rate below 0.05 (one-sided t-test) in at least one culture. Nearly all pairs are not hits, and differences among them are mostly noise (correlation between cultures about 0.3); most hits were seen in one culture only. Human sequences are the Swiss-Prot entries looked up by gene name; the clone may be another isoform. NSP2 values were corrected by the authors for a growth advantage. Listed are human proteins with a hit and a random twelfth of the others.

B1: CST6, Q15828 (protein)
chain: MARSNLPLALGLALVAFCLLALPRDARARPQERMVGELRDLSPDDPQVQKAAQAAVASYNMGSNSIYYFRDTHIIKAQSQLVAGIKYFLTMEMGSTDCRKTRVTGDHVDLTTCPLAAGAQQEKLRCDFEVLVVPWQNSSQLLKHNCVQM
B2: FAM82B, Q96DB5 (protein)
chain: MALAARLWRLLPFRRGAAPGSRLPAGTSGSRGHCGPCRFRGFEVMGNPGTFKRGLLLSALSYLGFETYQVISQAAVVHATAKVEEILEQADYLYESGETEKLYQLLTQYKESEDAELLWRLARASRDVAQLSRTSEEEKKLLVYEALEYAKRALEKNESSFASHKWYAICLSDVGDYEGIKAKIANAYIIKEHFEKAIELNPKDATSIHLMGIWCYTFAEMPWYQRRIAKMLFATPPSSTYEKALGYFHRAEQVDPNFYSKNLLLLGKTYLKLHNKKLAAFWLMKAKDYPAHTEEDKQIQTEAAQLLTSFSEKN
B3: MRM1, Q6IN84 (protein)
chain: MALLSTVRGATWGRLVTRHFSHAARHGERPGGEELSRLLLDDLVPTSRLELLFGMTPCLLALQAARRSVARLLLQAGKAGLQGKRAELLRMAEARDIPVLRPRRQKLDTMCRYQVHQGVCMEVSPLRPRPWREAGEASPGDDPQQLWLVLDGIQDPRNFGAVLRSAHFLGVDKVITSRRNSCPLTPVVSKSSAGAMEVMDVFSTDDLTGFLQTKAQQGWLVAGTVGCPSTEDPQSSEIPIMSCLEFLWERPTLLVLGNEGSGLSQEVQASCQLLLTILPRRQLPPGLESLNVSVAAGILLHSICSQRKGFPTEGERRQLLQDPQEPSARSEGLSMAQHPGLSSGPEKERQNEG
B4: TSSK4, Q6SA08 (protein)
chain: MGKGDVLEAAPTTTAYHSLMDEYGYEVGKAIGHGSYGSVYEAFYTKQKVMVAVKIISKKKASDDYLNKFLPREIQVMKVLRHKYLINFYRAIESTSRVYIILELAQGGDVLEWIQRYGACSEPLAGKWFSQLTLGIAYLHSKSIVHRDLKLENLLLDKWENVKISDFGFAKMVPSNQPVGCSPSYRQVNCFSHLSQTYCGSFAYACPEILRGLPYNPFLSDTWSMGVILYTLVVAHLPFDDTNLKKLLRETQKEVTFPANHTISQECKNLILQMLRQATKRATILDIIKDSWVLKFQPEQPTHEIRLLEAMCQLHNTTKQHQSLQITT

Target: SARS-CoV-2 E
Assay: yeast fitness gain over the viral ORF with no human partner (scaled fitness); higher = more likely to interact
Method: (§1)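 Split mouse DHFR complementation in pooled diploid yeast: human ORFeome clones carry one fragment and viral ORFs the other; barcoded lineages compete in 1 µg/mL methotrexate and fitness is read by barcode sequencing in up to three cultures.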

Binder | yeast fitness gain
B1 | inactive: 0.0407
B2 | inactive: 0.000935
B3 | inactive: -0.0483
B4 | inactive: -0.00171

Target: SARS-CoV-2 M
Assay: as above
Method: as §1

Binder | yeast fitness gain
B1 | inactive: 0.063
B2 | inactive: 0.0661
B3 | inactive: -0.0363
B4 | inactive: -0.0513

Target: SARS-CoV-2 NSP1
Assay: as above
Method: as §1

Binder | yeast fitness gain
B1 | inactive: -0.0319
B2 | inactive: 0.0659
B3 | inactive: -0.0072
B4 | inactive: 0.000646

Target: SARS-CoV-2 NSP10
Assay: as above
Method: as §1

Binder | yeast fitness gain
B1 | inactive: 0.0334
B2 | inactive: -0.00361
B3 | inactive: 0.0962
B4 | inactive: 0.0159

Target: SARS-CoV-2 NSP12
Assay: as above
Method: as §1

Binder | yeast fitness gain
B1 | inactive: -0.0315
B2 | inactive: 0.00312
B3 | inactive: -0.00805
B4 | inactive: -0.0456

Target: SARS-CoV-2 NSP13
Assay: as above
Method: as §1

Binder | yeast fitness gain
B1 | inactive: 0.0102
B2 | inactive: 0.0406
B3 | active: 0.105
B4 | inactive: 0.00586

Target: SARS-CoV-2 NSP16
Assay: as above
Method: as §1

Binder | yeast fitness gain
B1 | inactive: 0.0108
B2 | inactive: 0.0163
B3 | inactive: 0.019
B4 | inactive: -0.061

Target: SARS-CoV-2 NSP2
Assay: as above
Method: as §1

Binder | yeast fitness gain
B1 | inactive: -0.125
B2 | inactive: -0.129
B3 | inactive: -0.118
B4 | inactive: -0.107

Target: SARS-CoV-2 NSP5
Assay: as above
Method: as §1

Binder | yeast fitness gain
B1 | inactive: 0.0476
B2 | inactive: -0.0136
B3 | inactive: 0.0721
B4 | inactive: 0.0406

Target: SARS-CoV-2 NSP6
Assay: as above
Method: as §1

Binder | yeast fitness gain
B1 | inactive: 0.062
B2 | inactive: 0.034
B3 | inactive: 0.0223
B4 | inactive: 0.115

Target: SARS-CoV-2 NSP7
Assay: as above
Method: as §1

Binder | yeast fitness gain
B1 | inactive: -0.0416
B2 | inactive: 0.0364
B3 | inactive: -0.0514
B4 | inactive: 0.0656

Target: SARS-CoV-2 NSP8
Assay: as above
Method: as §1

Binder | yeast fitness gain
B1 | inactive: -0.101
B2 | inactive: 0.00778
B3 | inactive: 0.0447
B4 | inactive: 0.0259

Target: SARS-CoV-2 NSP9
Assay: as above
Method: as §1

Binder | yeast fitness gain
B1 | inactive: 0.0298
B2 | inactive: -0.186
B3 | inactive: 0.0792
B4 | inactive: -0.137

Target: SARS-CoV-2 ORF10
Assay: as above
Method: as §1

Binder | yeast fitness gain
B1 | inactive: 0.0199
B2 | inactive: 0.0394
B3 | inactive: 0.0304
B4 | inactive: -0.0592

Target: SARS-CoV-2 ORF3A
Assay: as above
Method: as §1

Binder | yeast fitness gain
B1 | inactive: 0.0317
B2 | inactive: 0.0313
B3 | inactive: 0.0386

Target: SARS-CoV-2 ORF3B
Assay: as above
Method: as §1

Binder | yeast fitness gain
B1 | inactive: 0.04
B2 | inactive: -0.0201
B3 | inactive: -0.0252
B4 | inactive: 0.0637

Target: SARS-CoV-2 ORF6
Assay: as above
Method: as §1

Binder | yeast fitness gain
B1 | inactive: 0.0074
B2 | inactive: -0.0134
B3 | inactive: 0.0551
B4 | inactive: -0.00768

Target: SARS-CoV-2 ORF7A
Assay: as above
Method: as §1

Binder | yeast fitness gain
B1 | inactive: -0.0162
B2 | inactive: 0.032
B3 | inactive: -0.0061
B4 | inactive: 0.0515

Target: SARS-CoV-2 ORF7B
Assay: as above
Method: as §1

Binder | yeast fitness gain
B1 | inactive: 0.00261
B2 | inactive: 0.0892
B3 | inactive: 0.0263
B4 | inactive: -0.0665

Target: SARS-CoV-2 ORF8
Assay: as above
Method: as §1

Binder | yeast fitness gain
B1 | inactive: 0.00215
B2 | inactive: 0.02
B3 | inactive: 0.0134
B4 | inactive: 0.0474

Target: SARS-CoV-2 ORF9B
Assay: as above
Method: as §1

Binder | yeast fitness gain
B1 | inactive: 0.0227
B2 | inactive: 0.0106
B3 | inactive: -0.00754
B4 | inactive: -0.00424

Target: SARS-CoV-2 ORF9Bwu (the 73-codon ORF)
Assay: as above
Method: as §1

Binder | yeast fitness gain
B1 | inactive: 0.0846
B2 | inactive: -0.0289
B3 | inactive: 0.054
B4 | inactive: -0.0134

Target: SARS-CoV-2 S
Assay: as above
Method: as §1

Binder | yeast fitness gain
B1 | inactive: 0.00457
B2 | inactive: 0.0283
B3 | inactive: -0.0127
B4 | inactive: -0.0102

Target: SARS-CoV-2 N
Assay: as above
Method: as §1

Binder | yeast fitness gain
B2 | inactive: 0.0642
B3 | inactive: 0.0365
B4 | inactive: -0.428

Target: SARS-CoV-2 NSP14
Assay: as above
Method: as §1

Binder | yeast fitness gain
B2 | inactive: 0.061
B3 | inactive: -0.00206
B4 | inactive: -0.0939

Target: SARS-CoV-2 NSP15
Assay: as above
Method: as §1

Binder | yeast fitness gain
B2 | inactive: -0.035
B3 | inactive: 0.00296
B4 | inactive: -0.0328

Target: SARS-CoV-2 NSP4
Assay: as above
Method: as §1

Binder | yeast fitness gain
B2 | inactive: 0.129
B3 | inactive: -0.178
